This note sets out measurements from the supplement of paper PMC4967469.

Compound in this test: COc1ncc(-c2ccc3nccc(-c4ccnnc4)c3c2)cc1NS(=O)(=O)c1ccc(F)cc1F [GSK2126458]
The experiment in a line: Viability of human cancer cell lines after 72 h of drug (GDSC screen). To be noted: top dose inferred. Here is the method:
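Human cancer cell lines in 384-well plates, medium with 10% serum, drug for 72 h over a 256-fold dose range (nine 2-fold or five 4-fold steps up to the top dose). Adherent lines were fixed and stained with the nucleic acid dye Syto60, suspension lines read with resazurin; signal relative to control wells, capped at 0 and 100%. One two-parameter sigmoid per drug and line, fitted in a mixed model over all curves with the slope shared within a line.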

IC50 is the fitted dose that halves viability relative to control wells, and lower means more sensitive; where the fit passes the top or lowest dose, that dose stands as a limit. AUC sums up the same curve from the lowest dose to the 256-fold higher top dose: 1 means no effect, lower means more sensitive. An inferred top dose is not printed in the source and was worked back from the curve model.

The IC50 is the concentration needed to halve the response being measured. Consider “OV-56 (ovary, adherent, top dose 0.128 µM)”, for which the AUC was found to be 0.823 and the IC50 amounted to 71.1 nM.

With “OV-90 (ovary, adherent, top dose 0.128 µM)”, the AUC came out at 0.843 and the half-maximal inhibitory concentration (IC50) is > 128 nM.

As to “OVCA420 (ovary, adherent, top dose 0.128 µM)”, the AUC was determined as 0.915 and the IC50 was > 128 nM.

For “OVCA433 (ovary, adherent, top dose 0.128 µM)”, the AUC came out at 0.899 and the IC50 is > 128 nM.

Regarding “OVCAR-3 (ovary, adherent, top dose 0.128 µM)”, the AUC came to 0.987 and the concentration for half-maximal inhibition (IC50) is > 128 nM.

Take “OVCAR-4 (ovary, adherent, top dose 0.128 µM)”: the AUC worked out at 0.734 and the IC50 is 52.8 nM.

In the case of “OVCAR-5 (ovary, adherent, top dose 0.128 µM)”, the AUC was found to be 0.676 and the IC50 turned out to be 27.6 nM.

As for “OVCAR-8 (ovary, adherent, top dose 0.128 µM)”, the AUC came to 0.681 and the 50% inhibitory concentration (IC50) stood at 24 nM.

Turning to “OVISE (ovary, adherent, top dose 0.128 µM)”, the AUC was determined as 0.441 and the IC50 was 5.23 nM.

For the cell line “OVK-18 (ovary, adherent, top dose 0.128 µM)”, the AUC was determined as 0.823 and the IC50 is 86.3 nM.

For “OVKATE (ovary, adherent, top dose 0.128 µM)”, the AUC stood at 0.824 and the IC50 is > 128 nM.

On to “OVMIU (ovary, adherent, top dose 0.128 µM)”, for which the AUC amounted to 0.296 and the IC50 amounted to 1.83 nM.

With “OVTOKO (ovary, adherent, top dose 0.128 µM)”, the AUC stood at 0.72 and the IC50 is 40.3 nM.

Regarding “P12-ICHIKAWA (T-cell lymphoblastic leukaemia, suspension, top dose 1.024 µM)”, the AUC amounted to 0.556 and the IC50 was determined as 87.8 nM.

For the cell line “P30-OHK (lymphoblastic leukaemia, suspension, top dose 0.128 µM)”, the AUC turned out to be 0.196 and the IC50 stood at 1.24 nM.

Take “P31-FUJ (acute myeloid leukaemia, suspension, top dose 0.128 µM)”: the AUC turned out to be 0.952 and the IC50 is > 128 nM.

Consider “P32-ISH (Burkitt lymphoma, suspension, top dose 0.128 µM)”, for which the AUC turned out to be 0.535 and the IC50 was determined as 9.72 nM.

Consider “PA-1 (ovary, adherent, top dose 0.128 µM)”, for which the AUC turned out to be 0.274 and the IC50 turned out to be 2.17 nM.

On to “PA-TU-8902 (pancreas, adherent, top dose 0.128 µM)”, for which the AUC was determined as 0.491 and the IC50 is 7.51 nM.

In the case of “PA-TU-8988T (pancreas, adherent, top dose 0.128 µM)”, the AUC turned out to be 0.761 and the IC50 amounted to 45.8 nM.

In the case of “PANC-02-03 (pancreas, adherent, top dose 0.128 µM)”, the AUC worked out at 0.689 and the IC50 was 30.5 nM.

Consider “PANC-03-27 (pancreas, adherent, top dose 0.128 µM)”, for which the AUC was determined as 0.557 and the IC50 came to 11.3 nM.

Turning to “PANC-04-03 (pancreas, adherent, top dose 0.128 µM)”, the AUC worked out at 0.914 and the IC50 was > 128 nM.

Turning to “PANC-08-13 (pancreas, adherent, top dose 0.128 µM)”, the AUC came to 0.421 and the IC50 was 4.56 nM.

For the cell line “PANC-10-05 (pancreas, adherent, top dose 0.128 µM)”, the AUC was 0.481 and the IC50 came out at 7.01 nM.

As for “PC-3 (prostate, adherent, top dose 0.128 µM)”, the AUC came to 0.689 and the IC50 was 30.6 nM.

As for “PC-3 [JPC-3] (lung adenocarcinoma, adherent, top dose 0.128 µM)”, the AUC was determined as 0.751 and the IC50 amounted to 54.8 nM.

In the case of “PC-14 (lung adenocarcinoma, adherent, top dose 0.128 µM)”, the AUC amounted to 0.81 and the IC50 was 58.6 nM.

For “PCI-4B (head and neck, adherent, top dose 0.128 µM)”, the AUC was determined as 0.594 and the IC50 is 14.3 nM.

Turning to “PCI-6A (head and neck, adherent, top dose 0.128 µM)”, the AUC was determined as 0.748 and the IC50 amounted to 40.4 nM.

With “PCI-15A (head and neck, adherent, top dose 0.128 µM)”, the AUC amounted to 0.758 and the IC50 was found to be 44.6 nM.

Turning to “PCI-30 (head and neck, adherent, top dose 0.128 µM)”, the AUC was 0.942 and the IC50 is > 128 nM.

For the cell line “PCI-38 (head and neck, adherent, top dose 0.128 µM)”, the AUC was 0.921 and the IC50 is > 128 nM.

“PE/CA-PJ15 (head and neck, adherent, top dose 0.128 µM)”: the AUC came out at 0.853 and the IC50 was 113 nM.

In the case of “PEO1 (ovary, adherent, top dose 0.128 µM)”, the AUC was determined as 0.987 and the half-inhibitory concentration (IC50) was > 128 nM.

Take “PF-382 (T-cell lymphoblastic leukaemia, suspension, top dose 1.024 µM)”: the AUC was found to be 0.25 and the 50% inhibitory concentration (IC50) stood at 13.8 nM.

Regarding “PFSK-1 (medulloblastoma, adherent, top dose 0.128 µM)”, the AUC was found to be 0.611 and the IC50 came out at 16.5 nM.

As for “PL4 (pancreas, adherent, top dose 0.128 µM)”, the AUC turned out to be 0.891 and the IC50 was > 128 nM.

With “PL18 (pancreas, adherent, top dose 0.128 µM)”, the AUC amounted to 0.799 and the IC50 worked out at 60.7 nM.

Turning to “PL-21 (acute myeloid leukaemia, suspension, top dose 0.128 µM)”, the AUC turned out to be 0.278 and the IC50 was 1.67 nM.

Turning to “PSN1 (pancreas, adherent, top dose 0.128 µM)”, the AUC is 0.783 and the IC50 came out at 45 nM.

Take “QGP-1 (pancreas, adherent, top dose 0.128 µM)”: the AUC came to 0.709 and the IC50 came to 45.3 nM.

For the cell line “QIMR-WIL (acute myeloid leukaemia, suspension, top dose 0.128 µM)”, the AUC was found to be 0.277 and the IC50 amounted to 1.91 nM.

Regarding “RC-K8 (B-cell lymphoma, suspension, top dose 0.128 µM)”, the AUC amounted to 0.973 and the IC50 is > 128 nM.

As for “RCC10RGB (kidney, adherent, top dose 0.128 µM)”, the AUC was determined as 0.878 and the IC50 was > 128 nM.

Regarding “RCC-AB (kidney, adherent, top dose 0.128 µM)”, the AUC came out at 0.521 and the IC50 is 9.31 nM.

Consider “RCC-ER (kidney, adherent, top dose 0.128 µM)”, for which the AUC was 0.843 and the IC50 was found to be 107 nM.

For “RCC-FG2 (kidney, adherent, top dose 0.128 µM)”, the AUC worked out at 0.77 and the 50% inhibitory concentration (IC50) was 62.1 nM.

As for “RCC-JF (kidney, adherent, top dose 0.128 µM)”, the AUC came out at 0.6 and the IC50 amounted to 15.6 nM.
